# Target: BRD4 (BDII_E352-M457) (Homo sapiens, UniProt O60885)
# Experiment: TR-FRET bromodomain binding assay, BRD4 BDII
# Protocol: A time-resolved fluorescence resonance energy transfer (TR-FRET) assay was used to determine the affinities of compounds of the Examples listed in Table 1 for each bromodomain of BRD4. […] An Alexa647-labeled BET-inhibitor was used as the fluorescent probe in the assay.
# (§1) Compound dilution series were prepared in DMSO via an approximately 3-fold serial dilution. Compound dilutions were added directly into white, low-volume assay plates (Perkin Elmer Proxiplate 384 Plus #6008280) using a Labcyte Echo in conjunction with Labcyte Access and Thermo Multidrop CombinL robotics. Compounds were then suspended in eight microliters (μL) of assay buffer (20 mM Sodium Phosphate, pH 6.0, 50 mM NaCl, 1 mM Ethylenediaminetetraacetic acid disodium salt dihydrate, 0.01% Triton X-100, 1 mM DL-Dithiothreitol) containing His-tagged bromodomain, Europium-conjugated anti-His antibody (Invitrogen PV5596) and Alexa-647-conjugated probe.
# After a one-hour equilibration at room temperature, TR-FRET ratios were determined using an Envision multilabel plate reader (Ex 340, Em 495/520).
# TR-FRET data were normalized to the means of 24 no-compound controls (“high”) and 8 controls containing 1 μM un-labeled probe (“low”). Percent inhibition was plotted as a function of compound concentration and the data were fit with the 4 parameter logistic equation to obtain IC50s. Inhibition constants (Ki) were calculated from the IC50s, probe Kd and probe concentration.
# Compound dilution series for Compounds A-E were prepared in DMSO via an approximately 3-fold serial dilution from 0.47 mM to 7.8 nM.
# as §1, with “Compound” for “Compound dilution series were prepared in DMSO via an approximately 3-fold serial dilution. Compound”
# The final concentration of 1× assay mixture contained 2% DMSO, 8 nM His-tagged bromodomain, 1 nM Europium-conjugated anti-His-tag antibody and 100 nM or 30 nM probe (for BDI or BDII, respectively) and compound concentration in the range of 9.19 μM-150 pM.
# TR-FRET data were normalized to the means of 24 no-compound controls (“high”) and 8 controls containing 1 μM un-labeled probe (“low”). Percent inhibition was plotted as a function of compound concentration and the data were fit with the 4 parameter logistic equation to obtain IC50s. Inhibition constants (Ki) were calculated from the IC50s, probe Kd and probe concentration. Typical Z′ values were between 0.65 and 0.75. The minimum significant ratio was determined to evaluate assay reproducibility (Eastwood et al., (2006) J Biomol Screen, 11: 253-261). The MSR was determined to be 2.03 for BDI and 1.93 for BDII, and a moving MSR (last six run MSR overtime) for both BDI and BDII was typically <3.
row,Ki,SMILES
1,2.78 nM,"CCOC(=O)CC(=O)N[C@H]1CC[C@H](Oc2cc(=O)n(C)cc2-c2cc(C(C)(C)O)ccc2Oc2c(C)cc(F)cc2C)CC1 [Example 55, ethyl 3-{[trans-4-({5-[2-(4-fluoro-2,6-dimethylphenoxy)-5-(2-hydroxypropan-2-yl)phenyl]-1-methyl-2-oxo-1,2-dihydropyridin-4-yl}oxy)cyclohexyl]amino}-3-oxopropanoate]"
2,2.68 nM,"Cc1cc(F)cc(C)c1Oc1ccc(C(C)(C)O)cc1-c1cn(C)c(=O)cc1O[C@H]1CC[C@H](NC(=O)C23CC(NC(=O)OC(C)(C)C)(C2)C3)CC1 (relative stereo) [Example 72, tert-butyl (3-{[trans-4-({5-[2-(4-fluoro-2,6-dimethylphenoxy)-5-(2-hydroxypropan-2-yl)phenyl]-1-methyl-2-oxo-1,2-dihydropyridin-4-yl}oxy)cyclohexyl]carbamoyl}bicyclo[1.1.1]pentan-1-yl)carbamate]"
3,17.7 nM,"Cc1cc(F)cc(C)c1Oc1ccc(C(C)(C)O)cc1-c1cn(C)c(=O)cc1O[C@H]1C[C@@H](CNC(=O)OC(C)(C)C)C1 [Example 8, tert-butyl {[cis-3-({5-[2-(4-fluoro-2,6-dimethylphenoxy)-5-(2-hydroxypropan-2-yl)phenyl]-1-methyl-2-oxo-1,2-dihydropyridin-4-yl}oxy)cyclobutyl]methyl}carbamate]"
4,5.71 nM,"Cc1cc(F)cc(C)c1Oc1ccc(C(C)(C)O)cc1-c1cn(C)c(=O)cc1O[C@H]1CC[C@H](N2C(=O)CCC(C)(C)C2=O)CC1 [Example 89, 1-[trans-4-({5-[2-(4-fluoro-2,6-dimethylphenoxy)-5-(2-hydroxypropan-2-yl)phenyl]-1-methyl-2-oxo-1,2-dihydropyridin-4-yl}oxy)cyclohexyl]-3,3-dimethylpiperidine-2,6-dione]"
5,2.43 nM,"CC(=O)N(C)[C@H]1CC[C@H](Oc2cc(=O)n(C)cc2-c2cc(C(C)(C)O)ccc2Oc2c(C)cc(F)cc2C)CC1 [Example 16, N-[trans-4-({5-[2-(4-fluoro-2,6-dimethylphenoxy)-5-(2-hydroxypropan-2-yl)phenyl]-1-methyl-2-oxo-1,2-dihydropyridin-4-yl}oxy)cyclohexyl]-N-methylacetamide]"
6,5.7 nM,"CC(=O)NC1CC2(C1)CC(Nc1cc(=O)n(C)cc1-c1cc(C(C)(C)O)ccc1Oc1c(C)cccc1C)C2 (stereo not shown) [Example 10, N-[6-({5-[2-(2,6-dimethylphenoxy)-5-(2-hydroxypropan-2-yl)phenyl]-1-methyl-2-oxo-1,2-dihydropyridin-4-yl}amino)spiro[3.3]heptan-2-yl]acetamide]"
7,37.4 nM,"Cc1cc(F)cc(C)c1Oc1ccc(C(C)(C)O)cc1-c1cn(C)c(=O)cc1O[C@H]1CC[C@H](n2cnccc2=O)CC1 [Example 144, 3-[trans-4-({5-[2-(4-fluoro-2,6-dimethylphenoxy)-5-(2-hydroxypropan-2-yl)phenyl]-1-methyl-2-oxo-1,2-dihydropyridin-4-yl}oxy)cyclohexyl]pyrimidin-4(3H)-one]"
8,2.65 nM,"COC(=O)N[C@H]1CC[C@H](Oc2cc(=O)n(C)cc2-c2cc(C(C)(C)O)cnc2Oc2c(C)cc(C(C)(C)O)cc2C)CC1 [Example 25, methyl [trans-4-({5′-(2-hydroxypropan-2-yl)-2′-[4-(2-hydroxypropan-2-yl)-2,6-dimethylphenoxy]-1-methyl-6-oxo[1,6-dihydro[3,3′-bipyridine]]-4-yl}oxy)cyclohexyl]carbamate]"
9,3.09 nM,"Cc1cc(F)cc(C)c1Oc1ccc(C(C)(C)O)cc1-c1cn(C)c(=O)cc1O[C@H]1CC[C@H](N(C)C(=O)C(C)(C)C)CC1 [Example 59, N-[trans-4-({5-[2-(4-fluoro-2,6-dimethylphenoxy)-5-(2-hydroxypropan-2-yl)phenyl]-1-methyl-2-oxo-1,2-dihydropyridin-4-yl}oxy)cyclohexyl]-N,2,2-trimethylpropanamide]"

# Further lines, the molecule ahead of its results:
row,SMILES,Ki
1,"COCC1(C(=O)N[C@H]2CC[C@H](Oc3cc(=O)n(C)cc3-c3cc(C(C)(C)O)ccc3Oc3c(C)cc(F)cc3C)CC2)CC1 [Example 70, N-[trans-4-({5-[2-(4-fluoro-2,6-dimethylphenoxy)-5-(2-hydroxypropan-2-yl)phenyl]-1-methyl-2-oxo-1,2-dihydropyridin-4-yl}oxy)cyclohexyl]-1-(methoxymethyl)cyclopropane-1-carboxamide]",4.83 nM
2,"Cc1cc(F)cc(C)c1Oc1ccc(C(C)(C)O)cc1-c1cn(C)c(=O)cc1O[C@H]1CC[C@H](N2C(=O)CNC2=O)CC1 [Example 125, 3-[trans-4-({5-[2-(4-fluoro-2,6-dimethylphenoxy)-5-(2-hydroxypropan-2-yl)phenyl]-1-methyl-2-oxo-1,2-dihydropyridin-4-yl}oxy)cyclohexyl]imidazolidine-2,4-dione]",5.5 nM
3,"CC=C1NC(=O)N([C@H]2CC[C@H](Oc3cc(=O)n(C)cc3-c3cc(C(C)(C)O)ccc3Oc3c(C)cc(F)cc3C)CC2)C1=O [Example 133, 5-ethylidene-3-[trans-4-({5-[2-(4-fluoro-2,6-dimethylphenoxy)-5-(2-hydroxypropan-2-yl)phenyl]-1-methyl-2-oxo-1,2-dihydropyridin-4-yl}oxy)cyclohexyl]imidazolidine-2,4-dione]",2.74 nM
4,"Cc1cc(F)cc(C)c1Oc1ccc(C(C)(C)O)cc1-c1cn(C)c(=O)cc1O[C@H]1CC[C@H](N2C(=O)CCC2C)CC1 (relative stereo) [Example 42, 5-[2-(4-fluoro-2,6-dimethylphenoxy)-5-(2-hydroxypropan-2-yl)phenyl]-1-methyl-4-{[trans-4-(2-methyl-5-oxopyrrolidin-1-yl)cyclohexyl]oxy}pyridin-2(1H)-one]",1.77 nM
5,"Cc1cc(F)cc(C)c1Oc1ccc(C(C)(C)O)cc1-c1cn(C)c(=O)cc1O[C@H]1CC[C@H](NC(=O)C23CC(N)(C2)C3)CC1 (relative stereo) [Example 93, 3-amino-N-[trans-4-({5-[2-(4-fluoro-2,6-dimethylphenoxy)-5-(2-hydroxypropan-2-yl)phenyl]-1-methyl-2-oxo-1,2-dihydropyridin-4-yl}oxy)cyclohexyl]bicyclo[1.1.1]pentane-1-carboxamide]",1.94 nM
6,"Cc1cc(F)cc(C)c1Oc1ccc(C(C)(C)O)cc1-c1cn(C)c(=O)cc1O[C@H]1CC[C@H](N2C(=O)CN(C)C2=O)CC1 [Example 78, 3-[trans-4-({5-[2-(4-fluoro-2,6-dimethylphenoxy)-5-(2-hydroxypropan-2-yl)phenyl]-1-methyl-2-oxo-1,2-dihydropyridin-4-yl}oxy)cyclohexyl]-1-methylimidazolidine-2,4-dione]",1.86 nM
7,"Cc1cc(F)cc(C)c1Oc1ccc(C(C)(C)O)cc1-c1cn(C)c(=O)cc1O[C@H]1CC[C@H](NC(=O)N2CCNC2=O)CC1 [Example 123, N-[trans-4-({5-[2-(4-fluoro-2,6-dimethylphenoxy)-5-(2-hydroxypropan-2-yl)phenyl]-1-methyl-2-oxo-1,2-dihydropyridin-4-yl}oxy)cyclohexyl]-2-oxoimidazolidine-1-carboxamide]",3.37 nM
8,"Cc1cc(F)cc(C)c1Oc1ccc(C(C)(C)O)cc1-c1cn(C)c(=O)cc1O[C@H]1CC[C@H](N2C(=O)N[C@H](C)C2=O)CC1 [Example 132, (5R)-3-[trans-4-({5-[2-(4-fluoro-2,6-dimethylphenoxy)-5-(2-hydroxypropan-2-yl)phenyl]-1-methyl-2-oxo-1,2-dihydropyridin-4-yl}oxy)cyclohexyl]-5-methylimidazolidine-2,4-dione]",2.76 nM
9,"COC(=O)N[C@H]1CC[C@H](Oc2cc(=O)n(C)cc2-c2cc(C(C)(C)O)ccc2Oc2c(C)cc(C(C)(C)O)cc2C)CC1 [Example 20, methyl {trans-4-[(5-{5-(2-hydroxypropan-2-yl)-2-[4-(2-hydroxypropan-2-yl)-2,6-dimethylphenoxy]phenyl}-1-methyl-2-oxo-1,2-dihydropyridin-4-yl)oxy]cyclohexyl}carbamate]",1.06 nM
10,"CC(=O)N[C@H]1C[C@H](Oc2cc(=O)n(C)cc2-c2cc(C(C)(C)O)ccc2Oc2c(C)cc(F)cc2C)C1 [Example 100, N-[trans-3-({5-[2-(4-fluoro-2,6-dimethylphenoxy)-5-(2-hydroxypropan-2-yl)phenyl]-1-methyl-2-oxo-1,2-dihydropyridin-4-yl}oxy)cyclobutyl]acetamide]",9.97 nM
